Measured values reported in PubChem BioAssay (NCI).
Where “and” joins values, the source holds several entries; their conditions need not be identical. Identical values can stand only once.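 All cell lines were grown in 96-well plates and treated with compound for 48 hours. At the GI50, growth is halved. The concentration for full growth arrest is given as TGI.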 Numbered stars: 1 amine (or outer) side, 2 acyl side, 3 side chain; on linkers, the order of the positions; unused ones are H or OH. Peptide text beside a SMILES is read from it. * marks the point of attachment. γGlu = O=C(O)[CH](CCC(=O)[*:2])N[*:1]; NHOH = ON*

What follows are compounds tested on NCI-H322M lung (assay: DTP human tumour cell line panel, 48 h).

Going from `CCCN1CCC(Oc2cc(Nc3nc(Nc4cccc(F)c4C(N)=O)c4cc[nH]c4n3)c(OC)cc2Cl)CC1` to `CN1CCN(c2ccc3nc(-c4[nH]ncc4Nc4ncnc5[nH]ccc45)[nH]c3c2)CC1`, the GI50 falls from 3.77 µM to 0.322 µM (12-fold).

`Clc1ccc2c(NC3CCC(NC4CCCCC4)CC3)ccnc2c1` (stereo not drawn) and `C=CC(=O)N1CCN([C@@H](CC2CC2)c2ccc([C@H](C)Nc3ncc4c(n3)N(CC)C(=O)OC4)cc2)CC1` are within 1.5-fold of each other in GI50: 15 µM for the first, 11.4 µM for the second.

First: Cc1ccc(/C=C/C(=O)c2ccc(F)cc2)s1
Second: Cc1ccc(NC(=O)c2ccoc2)cc1-c1ccc(C(=O)NCC2CC2)cc1
The GI50 of the first is lower: 11.5 µM for the first, greater than 25 µM for the second.

Compared with `COc1cccc2c1C(=O)c1c(O)c3c(c(O)c1C2=O)C[C@@](O)(/C(C)=N/NC(=O)c1cccc([N+](=O)[O-])c1)C[C@@H]3OC1CC(N)C(O)C(C)O1` (stereo partly drawn), `C=CCn1c(SCC(=O)Nc2ccc(C(=O)/C=C/c3cc(OC)c(OC)c(OC)c3)cc2)nnc1-c1cc(OC)c(OC)c(OC)c1` is 5.7-fold higher in GI50: 1.21 µM for the first, 6.85 µM for the second.

Going from `COc1cc2c(cc1OCCCCCOc1ccc(-c3nc4ccccc4s3)cc1)N=C[C@@H]1CCCN1C2=O` to `CCCCCOC(=O)c1c(C)[nH]c(/C=C2\N=C(c3ccc[nH]3)C=C2OC)c1C`, the GI50 falls from 7.78 µM to 0.0709 µM (110-fold).

`N#CSc1c[nH]c2ccc(/C=C/C(=O)/C=C(O)/C=C/c3ccc4[nH]cc(SC#N)c4c3)cc12` and `O=c1[nH]c(=O)n(Cc2ccc(C34CC5CC(CC(C5)C3)C4)c(O)c2)cc1F` are within 1.5-fold of each other in GI50: 16 µM for the first, 17.9 µM for the second.

`COC1C(OC(=O)/C=C/C=C/C=C/C=C/C(=O)O)CCC2(CO2)C1C1(C)OC1CC=C(C)C` (stereo not drawn) was tested, and the GI50 was 0.541 µM.

First: CCCN1CCC(Oc2cc(Nc3nc(Nc4cccc(F)c4C(N)=O)c4cc[nH]c4n3)c(OC)cc2Cl)CC1
Second: CN1CCN(c2ccc3nc(-c4[nH]ncc4Nc4ncnc5[nH]ccc45)[nH]c3c2)CC1
The TGI of the first is 2.9-fold higher: 7.55 µM for the first, 2.59 µM for the second.

Going from `CN(C(=O)Cc1cc(Cl)c(Cl)cc1NC(=O)CCCN)[C@H]1CCCC[C@@H]1N1CCCC1` to `Clc1ccc2c(NC3CCC(NC4CCCCC4)CC3)ccnc2c1` (stereo not drawn), the TGI falls from greater than 100 µM to 41.8 µM.

Compared with `CC1OC1C(=O)P(=O)(O)O` (stereo not drawn), `COc1cccc2c1C(=O)c1c(O)c3c(c(O)c1C2=O)C[C@@](O)(/C(C)=N/NC(=O)c1cccc([N+](=O)[O-])c1)C[C@@H]3OC1CC(N)C(O)C(C)O1` (stereo partly drawn) is lower in TGI: greater than 100 µM for the first, 14.5 µM for the second.

Going from `Cc1ccc(/C=C/C(=O)c2ccc(F)cc2)s1` to `Cc1ccc(N=NC(=Nc2ccc(F)cc2)c2ccc(N(CCC#N)CCC#N)cc2)cc1`, the TGI rises from 25.1 µM to greater than 100 µM.

`NC(CCC(=O)NC(CCC(=O)NO)C(=O)NCC(=O)O)C(=O)O` (stereo not drawn) (γGlu-Glu(NHOH)-Gly-OH; configuration not given here) and `COC(=O)[C@H](Cc1ccccc1)NC(=O)N(CCN(CCC#N)C(=O)N[C@H](C(=O)OC)C(C)C)c1ccccc1` cannot be ordered by TGI: greater than 100 µM for the first, greater than 100 µM for the second.

`CCOc1ccc2c(c1)[n+]([O-])c(C(N)=O)c(N)[n+]2[O-]` and `CCCCOC(=O)Nc1ccc(S(=O)(=O)Nc2c(Cl)cccc2Cl)cc1` cannot be ordered by TGI: greater than 100 µM for the first, greater than 100 µM for the second.

Compared with `CCOC(=O)CCCN`, `CCCCCOC(=O)c1c(C)[nH]c(/C=C2\N=C(c3ccc[nH]3)C=C2OC)c1C` is lower in TGI: greater than 100 µM for the first, 3.48 µM for the second.

Going from `C=CC(=O)N1CCN([C@@H](CC2CC2)c2ccc([C@H](C)Nc3ncc4c(n3)N(CC)C(=O)OC4)cc2)CC1` to `Cc1ccc(NC(=O)c2ccoc2)cc1-c1ccc(C(=O)NCC2CC2)cc1`, the TGI rises from 24.3 µM to greater than 25 µM.

Going from `OC(c1ccccc1)c1c(-c2ccccc2)[nH]c(-c2ccccc2)c1C(O)c1ccccc1` (stereo not drawn) to `CC(NC(=O)c1ccc(Cl)c(Cl)c1)c1ccc(-c2ccccc2)cc1` (stereo not drawn), the TGI rises from 24.3 µM to greater than 100 µM.

First: COc1cc2c(cc1OCCCCCOc1ccc(-c3nc4ccccc4s3)cc1)N=C[C@@H]1CCCN1C2=O
Second: O=C(CSc1nc2ccccc2c(=O)n1-c1ccccc1)N=Nc1c(O)[nH]c2ccc(Br)cc12
The TGI of the first is higher: greater than 74.9 µM for the first, 13 µM for the second.

`CC1=C[C@H](C[C@]2(C)c3c(c4c(C)cccc4oc3=O)O[C@@H]2C)OC1=O` and `COc1cc(O)c2c(=O)c3cccc(C)c3[nH]c2c1` cannot be ordered by TGI: greater than 100 µM for the first, greater than 10 µM for the second.

First: N#CSc1c[nH]c2ccc(/C=C/C(=O)/C=C(O)/C=C/c3ccc4[nH]cc(SC#N)c4c3)cc12
Second: C=CCn1c(SCC(=O)Nc2ccc(C(=O)/C=C/c3cc(OC)c(OC)c(OC)c3)cc2)nnc1-c1cc(OC)c(OC)c(OC)c1
The TGI of the first is higher: greater than 100 µM for the first, 38.9 µM for the second.

Compared with `Cc1ccc(S(=O)(=O)N(CC(O)COc2ccccc2)c2c(F)c(F)c(F)c(F)c2F)cc1` (stereo not drawn), `O=C1c2ccccc2C(=O)N1C/C=N/NS(=O)(=O)c1cccc([N+](=O)[O-])c1` is higher in TGI: 62.8 µM for the first, greater than 100 µM for the second.

`NC(=O)N/N=C(\Cc1cc(=O)oc2cc(O)ccc12)C(=O)Nc1ccccc1C(N)=O` and `O=c1c(-c2cccc3ccccc23)c(-c2cccc3ccccc23)c1=O` cannot be ordered by TGI: greater than 100 µM for the first, greater than 100 µM for the second.

First: COC1C(OC(=O)/C=C/C=C/C=C/C=C/C(=O)O)CCC2(CO2)C1C1(C)OC1CC=C(C)C (stereo not drawn)
Second: O=c1[nH]c(=O)n(Cc2ccc(C34CC5CC(CC(C5)C3)C4)c(O)c2)cc1F
The TGI of the first is higher: greater than 100 µM for the first, 34 µM for the second.

First: CSC(=Nc1ccccc1)c1c(C)[nH]n(-c2ccccc2)c1=O
Second: COc1ccc(OC)c([N+](=O)[O-])c1-c1nc2sc(Cl)cn2c1/C=N/N=C(N)N
The TGI of the first is higher: greater than 100 µM for the first, 39.5 µM for the second.

With `CCN(CC)c1c(-c2c(OC(C)C)c(=O)c2=O)c(=O)n2ccsc2c1OC(C)=O` the TGI was greater than 100 µM.

In the case of `CC[C@@H]1C(=O)N(C)c2cnc(Nc3ccc(C(=O)NC4CCC(N5CCN(CC6CC6)CC5)CC4)cc3OC)nc2N1C(C)C` (stereo partly drawn), the GI50 is reported as 0.0425 µM and 0.0454 µM.

For `CC[C@@H]1C(=O)N(C)c2cnc(Nc3ccc(C(=O)NC4CCC(N5CCN(CC6CC6)CC5)CC4)cc3OC)nc2N1C(C)C` (stereo partly drawn), the TGI was > 10 µM and 9.7 µM.
